Experimental data as given in article PMC11699347.
No constants are given. Whether binding was seen depends on the method and setting. For part of these data: In cells and extracts the contact can be indirect. Some binding calls cover weakened binding; strength is not graded here. For part of these data: Where a sequence is shown, tags or fusion partners need not be part of it. One block for each binder: values may come before it.

Protein sequences, listed by entry. Tags and fused reporters are not part of them. Lines headed by an entry give the natural chain unless they say otherwise; changes in a name come on top. Chains listed by the source or under a name are the forms on record and can include a tag or linker.
UniProt P97303: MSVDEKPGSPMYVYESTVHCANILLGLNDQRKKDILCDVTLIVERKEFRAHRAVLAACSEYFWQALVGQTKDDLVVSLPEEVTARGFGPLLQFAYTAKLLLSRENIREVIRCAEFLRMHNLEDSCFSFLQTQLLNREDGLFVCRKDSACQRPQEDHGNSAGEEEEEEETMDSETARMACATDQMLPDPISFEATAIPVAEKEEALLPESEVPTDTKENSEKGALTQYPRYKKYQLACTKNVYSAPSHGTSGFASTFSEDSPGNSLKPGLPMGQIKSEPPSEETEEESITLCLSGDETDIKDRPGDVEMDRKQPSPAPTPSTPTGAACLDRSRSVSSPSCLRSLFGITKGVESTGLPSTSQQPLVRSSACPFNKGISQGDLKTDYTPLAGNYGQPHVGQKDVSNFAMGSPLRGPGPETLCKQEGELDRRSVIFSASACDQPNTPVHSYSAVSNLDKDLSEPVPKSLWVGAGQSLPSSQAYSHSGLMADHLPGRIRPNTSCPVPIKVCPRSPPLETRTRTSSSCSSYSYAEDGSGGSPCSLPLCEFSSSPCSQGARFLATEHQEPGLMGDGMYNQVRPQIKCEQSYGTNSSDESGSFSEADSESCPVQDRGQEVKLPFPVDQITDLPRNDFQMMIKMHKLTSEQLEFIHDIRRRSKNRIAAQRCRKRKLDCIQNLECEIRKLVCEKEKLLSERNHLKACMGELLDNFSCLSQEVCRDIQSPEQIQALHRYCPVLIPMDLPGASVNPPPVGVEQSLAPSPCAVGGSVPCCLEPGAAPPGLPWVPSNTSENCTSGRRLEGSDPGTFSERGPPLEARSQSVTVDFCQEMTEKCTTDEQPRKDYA
FLAG-BACH2-NHR-5 (P97303, form named): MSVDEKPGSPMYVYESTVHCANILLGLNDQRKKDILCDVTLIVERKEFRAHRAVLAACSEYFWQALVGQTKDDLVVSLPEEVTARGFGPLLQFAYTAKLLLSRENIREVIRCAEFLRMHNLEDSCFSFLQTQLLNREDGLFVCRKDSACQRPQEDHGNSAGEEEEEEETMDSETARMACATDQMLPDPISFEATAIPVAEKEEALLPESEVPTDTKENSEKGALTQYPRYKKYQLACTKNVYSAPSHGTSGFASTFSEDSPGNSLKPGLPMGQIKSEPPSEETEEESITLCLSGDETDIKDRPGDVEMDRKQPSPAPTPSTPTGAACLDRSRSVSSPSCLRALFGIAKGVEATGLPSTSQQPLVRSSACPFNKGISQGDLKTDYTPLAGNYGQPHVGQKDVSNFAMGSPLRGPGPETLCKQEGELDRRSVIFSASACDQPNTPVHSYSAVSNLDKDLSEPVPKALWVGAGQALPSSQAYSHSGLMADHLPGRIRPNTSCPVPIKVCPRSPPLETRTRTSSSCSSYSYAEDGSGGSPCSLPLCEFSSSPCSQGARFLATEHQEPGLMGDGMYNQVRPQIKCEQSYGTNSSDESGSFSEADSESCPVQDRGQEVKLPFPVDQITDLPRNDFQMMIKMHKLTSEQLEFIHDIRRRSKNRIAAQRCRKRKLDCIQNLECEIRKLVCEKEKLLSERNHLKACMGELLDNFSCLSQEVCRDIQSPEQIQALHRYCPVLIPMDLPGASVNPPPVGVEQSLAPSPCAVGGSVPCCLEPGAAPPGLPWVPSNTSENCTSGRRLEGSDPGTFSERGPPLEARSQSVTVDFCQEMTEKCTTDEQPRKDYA

What was measured:
[1] = target: FLAG-BACH2 (wild-type) (mouse) (UniProt P97303); experiment: co-IP; HEK293T transfected with FLAG-BACH2 wild type or mutants; lysate (50 mM Tris-HCl pH 8.0, 120 mM NaCl, 0.1% Triton X-100), anti-FLAG magnetic beads 2 h at 4°C, FLAG peptide elution, immunoblot
FLAG-BACH2-NHR-5 (mouse) = FLAG-BACH2-NHR-5 (mouse) (UniProt P97303); experiment: as above
[2] = target: hBACH2 GAL4-DBD fusion (pFN26A-hBACH2) (human), Q9BYV9; experiment: two-hybrid; mammalian two-hybrid in HEK293T: GAL4-DBD fusion (pFN26A) and VP-16 AD fusion (pFN10A), pGL4.35-9xGAL4UAS-Luc reporter; also with co-expressed TBK1 or TBK1(S172A) and the TBK1 inhibitor MRT67307; settings: remark: other sources report otherwise

binding [1]: binds | binding (FLAG-BACH2-NHR-5 (mouse)): binds
B1: TBK1 in HEK293T cells (enzyme, UniProt Q9UHD2 1-729)
chain: MQSTSNHLWLLSDILGQGATANVFRGRHKKTGDLFAIKVFNNISFLRPVDVQMREFEVLKKLNHKNIVKLFAIEEETTTRHKVLIMEFCPCGSLYTVLEEPSNAYGLPESEFLIVLRDVVGGMNHLRENGIVHRDIKPGNIMRVIGEDGQSVYKLTDFGAARELEDDEQFVSLYGTEEYLHPDMYERAVLRKDHQKKYGATVDLWSIGVTFYHAATGSLPFRPFEGPRRNKEVMYKIITGKPSGAISGVQKAENGPIDWSGDMPVSCSLSRGLQVLLTPVLANILEADQEKCWGFDQFFAETSDILHRMVIHVFSLQQMTAHKIYIHSYNTATIFHELVYKQTKIISSNQELIYEGRRLVLEPGRLAQHFPKTTEENPIFVVSREPLNTIGLIYEKISLPKVHPRYDLDGDASMAKAITGVVCYACRIASTLLLYQELMRKGIRWLIELIKDDYNETVHKKTEVVITLDFCIRNIEKTVKVYEKLMKINLEAAELGEISDIHTKLLRLSSSQGTIETSLQDIDSRLSPGGSLADAWAHQEGTHPKDRNVEKLQVLLNCMTEIYYQFKKDKAERRLAYNEEQIHKFDKQKLYYHATKAMTHFTDECVKKYEAFLNKSEEWIRKMLHLRKQLLSLTNQCFDIEEEVSKYQEYTNELQETLPQKMFTASSGIKHTMTPIYPSSNTLVEMTLGMKKLKEEMEGVVKELAENNHILERFGSLTMDGGLRNVDCL

binding [2]: binds
B2: hFBXO22 VP-16 AD fusion (pFN10A-hFBXO22), Q8NEZ5-1 1-403 (protein)
chain: MEPVGCCGECRGSSVDPRSTFVLSNLAEVVERVLTFLPAKALLRVACVCRLWRECVRRVLRTHRSVTWISAGLAEAGHLEGHCLVRVVAEELENVRILPHTVLYMADSETFISLEECRGHKRARKRTSMETALALEKLFPKQCQVLGIVTPGIVVTPMGSGSNRPQEIEIGESGFALLFPQIEGIKIQPFHFIKDPKNLTLERHQLTEVGLLDNPELRVVLVFGYNCCKVGASNYLQQVVSTFSDMNIILAGGQVDNLSSLTSEKNPLDIDASGVVGLSFSGHRIQSATVLLNEDVSDEKTAEAAMQRLKAANIPEHNTIGFMFACVGRGFQYYRAKGNVEADAFRKFFPSVPLFGFFGNGEIGCDRIVTGNFILRKCNEVKDDDLFHSYTTIMALIHLGSSK
